B1: TEV protease; numbered along this chain (parent)
chain: MGESLFKGPRDYNPISSSICHLTNESDGHTTSLYGIGFGPFIITNKHLFRRNNGTLVVQSLHGVFKVKDTTTLQQHLVDGRDMIIIRMPKDFPPFPQKLKFREPQREERICLVTTNFQTKSMSSMVSDTSCTFPSGDGIFWKHWIQTKDGQCGSPLVSTRDGFIVGIHSASNFTNTNNYFTSVPKNFMELLTNQEAQQWVSGWRLNADSVLWGGHKVFMVKPEEPFQPVKEATQL

The variants in the test derive from B1. Kind of test: raw area under fraction-flipped curve 0-4 h after induction (AUC4h, not background-subtracted), DNA-recorder readout of cleavage of the substrate (dimensionless); higher = more cleavage of the substrate by the protease variant. To be noted: temperature: 34 °C; time window: 0-4 h after rhamnose induction. On the procedure: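 In vivo DNA recorder in E. coli TOP10(DE3) ΔrhaA at 34 °C. Each TEVp single-site mutant (parent TEVp 0) is paired with a single-site variant of the 7-mer TEVs (canonical ENLYFQ|S). The substrate sits between flexible linkers in a Bxb1-sfGFP-TEVs-SsrA fusion, so cleavage stabilises Bxb1 and speeds flipping of a recombination array, read by NGS. The value is the raw area under the fraction-flipped curve over 0-4 h after rhamnose induction (AUC4h), with ≥20 reads per time point. It is not background-subtracted; inactive controls average about 0.047.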

Consider nine variants from the supplement of paper PMC12217912.

The list shows a part of the results. Sequences were assembled here from the parent chain. Values near 0.05 are background.
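Further: Bxb1 expression induced with 0.2% (w/v) L-rhamnose at OD600 near 0.5, cultures sampled hourly, flipped fraction per protease–substrate barcode pair counted by paired-end Illumina sequencing.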

Turning to MGESLFKGPRDYNPISSSICHLTNESDGHTTSLYGIGFGPFIITNKHLFRRNNGTLVVQSLHGVFKVKDTTTLQQHLVDGRDMIIIRMPKDFPPFPQKLKFREPQREERICLVTTNFQTKSMSSMVSDCSCTFPSGDGIFWKHWIQTKDGQCGSPLVSTRDGFIVGIHSASNFTNTNNYFTSVPKNFMELLTNQEAQQWVSGWRLNADSVLWGGHKVFMVKPEEPFQPVKEATQL [T129C], the “area with substrate ENLYFQA” value amounted to 0.087, the “area with substrate ENLYFQC” value is 0.0902, the “area with substrate ENLYFQD” value came to 0.0695 and the “area with substrate ENLYFQG” value amounted to 0.08. Also, the “area with substrate ENLYFQH” value worked out at 0.0671, the “area with substrate ENLYFQI” value came out at 0.0507, the “area with substrate ENLYFQK” value worked out at 0.0503 and the “area with substrate ENLYFQL” value worked out at 0.0577. Further, the “area with substrate ENLYFQM” value came out at 0.0902, the “area with substrate ENLYFQN” value was 0.0884, the “area with substrate ENLYFQR” value is 0.0493 and the “area with substrate ENLYFQS” value was determined as 0.1. For the same variant, the “area with substrate ENLYFQT” value came out at 0.0642 and the “area with substrate ENLYFQY” value was 0.0732.
MGESLFKGPRDYNPISSSICHLTNESDGHTTSLYGIGFGPFIITNKHLFRRNNGTLVVQSLHGVFKVKDTTTLQQHLVDGRDMIIIRMPKDFPPFPQKLKFREPQREERICLVTTNFQTKSMGSMVSDTSCTFPSGDGIFWKHWIQTKDGQCGSPLVSTRDGFIVGIHSASNFTNTNNYFTSVPKNFMELLTNQEAQQWVSGWRLNADSVLWGGHKVFMVKPEEPFQPVKEATQL [S123G]: the “area with substrate ENLYFQA” value was 0.0896, the “area with substrate ENLYFQD” value was 0.0802, the “area with substrate ENLYFQE” value came to 0.0723 and the “area with substrate ENLYFQF” value came out at 0.0719. In addition, the “area with substrate ENLYFQG” value came out at 0.13, the “area with substrate ENLYFQH” value worked out at 0.0727, the “area with substrate ENLYFQI” value stood at 0.0538 and the “area with substrate ENLYFQK” value is 0.0667. In addition, the “area with substrate ENLYFQL” value amounted to 0.0633, the “area with substrate ENLYFQM” value was determined as 0.111, the “area with substrate ENLYFQN” value worked out at 0.0807 and the “area with substrate ENLYFQP” value worked out at 0.06. In addition, the “area with substrate ENLYFQQ” value turned out to be 0.0668, the “area with substrate ENLYFQR” value turned out to be 0.0574, the “area with substrate ENLYFQS” value is 0.103 and the “area with substrate ENLYFQV” value worked out at 0.0544. Moreover, the “area with substrate ENLYFQW” value is 0.0759 and the “area with substrate ENLYFQY” value amounted to 0.0626.
With MGESLFKGPRDYNPISSSICHLTNESDGHTTSLYGIGFGPFIITNKHLFRRNNGTLVVQSLHGVFKVKDTTTLQQHLVDGRDMIIIRMPKDFPPFPQKLKFREPQREERICLVTTNFQTKSMESMVSDTSCTFPSGDGIFWKHWIQTKDGQCGSPLVSTRDGFIVGIHSASNFTNTNNYFTSVPKNFMELLTNQEAQQWVSGWRLNADSVLWGGHKVFMVKPEEPFQPVKEATQL [S123E], the “area with substrate ENLYFQA” value came to 0.115, the “area with substrate ENLYFQC” value worked out at 0.111, the “area with substrate ENLYFQD” value stood at 0.0888 and the “area with substrate ENLYFQF” value was 0.0642. In addition, the “area with substrate ENLYFQG” value stood at 0.081, the “area with substrate ENLYFQH” value turned out to be 0.0616, the “area with substrate ENLYFQI” value worked out at 0.0642 and the “area with substrate ENLYFQL” value was 0.0823. In addition, the “area with substrate ENLYFQM” value is 0.0871, the “area with substrate ENLYFQN” value is 0.0968, the “area with substrate ENLYFQR” value stood at 0.0598 and the “area with substrate ENLYFQS” value was 0.0989. For the same variant, the “area with substrate ENLYFQT” value came out at 0.0672, the “area with substrate ENLYFQW” value is 0.0626 and the “area with substrate ENLYFQY” value was 0.0824.
In the case of MGESLFKGPRDYNPISSSICHLTNESDGHTTSLYGIGFGPFIITNKHLFRRNNGTLVVQSLHGVFKVKDTTTLQQHLVDGRDMIIIRMPKDFPPFPQKLKFREPQREERICLVTTNFQTKPMSSMVSDTSCTFPSGDGIFWKHWIQTKDGQCGSPLVSTRDGFIVGIHSASNFTNTNNYFTSVPKNFMELLTNQEAQQWVSGWRLNADSVLWGGHKVFMVKPEEPFQPVKEATQL [S121P], the “area with substrate ENLYFQA” value was 0.088, the “area with substrate ENLYFQC” value stood at 0.115, the “area with substrate ENLYFQG” value was 0.076 and the “area with substrate ENLYFQK” value worked out at 0.0653. Besides, the “area with substrate ENLYFQL” value worked out at 0.0644, the “area with substrate ENLYFQN” value turned out to be 0.0764, the “area with substrate ENLYFQP” value came to 0.0645 and the “area with substrate ENLYFQQ” value was determined as 0.0702. Moreover, the “area with substrate ENLYFQR” value was 0.0634, the “area with substrate ENLYFQS” value was determined as 0.103, the “area with substrate ENLYFQT” value was determined as 0.0694 and the “area with substrate ENLYFQY” value was 0.0697.
With MGESLFKGPRDYNPISSSICHLTNESDGHTTSLYGIGFGPFIITNKHLFRRNNGTLVVQSLHGVFKVKDTTTLQQHLVDGRDMIIIRMPKDFPPFPQKLKFREPQREERICLVTTNFQTKGMSSMVSDTSCTFPSGDGIFWKHWIQTKDGQCGSPLVSTRDGFIVGIHSASNFTNTNNYFTSVPKNFMELLTNQEAQQWVSGWRLNADSVLWGGHKVFMVKPEEPFQPVKEATQL [S121G], the “area with substrate ENLYFQA” value came to 0.106, the “area with substrate ENLYFQD” value was 0.0345, the “area with substrate ENLYFQE” value came out at 0.0307 and the “area with substrate ENLYFQG” value came to 0.0882. For the same variant, the “area with substrate ENLYFQH” value is 0.0881, the “area with substrate ENLYFQI” value worked out at 0.0643, the “area with substrate ENLYFQL” value was 0.112 and the “area with substrate ENLYFQN” value is 0.0774. For the same variant, the “area with substrate ENLYFQP” value was 0.0659, the “area with substrate ENLYFQR” value is 0.0565, the “area with substrate ENLYFQS” value worked out at 0.11 and the “area with substrate ENLYFQT” value was 0.0704. For the same variant, the “area with substrate ENLYFQV” value was found to be 0.0634.
For the variant MGESLFKGPRDYNPISSSICHLTNESDGHTTSLYGIGFGPFIITNKHLFRRNNGTLVVQSLHGVFKVKDTTTLQQHLVDGRDMIIIRMPKDFPPFPQKLKFREPQREERICLVTTNFQTKSMSSMVMDTSCTFPSGDGIFWKHWIQTKDGQCGSPLVSTRDGFIVGIHSASNFTNTNNYFTSVPKNFMELLTNQEAQQWVSGWRLNADSVLWGGHKVFMVKPEEPFQPVKEATQL [S127M], the “area with substrate ENLYFQA” value was 0.133, the “area with substrate ENLYFQC” value is 0.117, the “area with substrate ENLYFQF” value was 0.0993 and the “area with substrate ENLYFQH” value was determined as 0.0822. Moreover, the “area with substrate ENLYFQI” value turned out to be 0.0668, the “area with substrate ENLYFQK” value amounted to 0.0593, the “area with substrate ENLYFQL” value is 0.0236 and the “area with substrate ENLYFQM” value came to 0.0591. In addition, the “area with substrate ENLYFQP” value is 0.0343, the “area with substrate ENLYFQR” value amounted to 0.056, the “area with substrate ENLYFQS” value amounted to 0.11 and the “area with substrate ENLYFQT” value was 0.0722. Also, the “area with substrate ENLYFQV” value amounted to 0.0646, the “area with substrate ENLYFQW” value worked out at 0.0607 and the “area with substrate ENLYFQY” value amounted to 0.0868.
With MGESLFKGPRDYNPISSSICHLTNESDGHTTSLYGIGFGPFIITNKHLFRRNNGTLVVQSLHGVFKVKDTTTLQQHLVDGRDMIIIRMPKDFPPFPQKLKFREPQREERICLVTTNFQTKSMSSEVSDTSCTFPSGDGIFWKHWIQTKDGQCGSPLVSTRDGFIVGIHSASNFTNTNNYFTSVPKNFMELLTNQEAQQWVSGWRLNADSVLWGGHKVFMVKPEEPFQPVKEATQL [M125E], the “area with substrate ENLYFQA” value is 0.0989, the “area with substrate ENLYFQC” value came out at 0.122, the “area with substrate ENLYFQD” value was 0.0916 and the “area with substrate ENLYFQF” value was determined as 0.0698. In addition, the “area with substrate ENLYFQH” value is 0.0866, the “area with substrate ENLYFQI” value came out at 0.075, the “area with substrate ENLYFQL” value was 0.0624 and the “area with substrate ENLYFQN” value is 0.0564. In addition, the “area with substrate ENLYFQP” value is 0.0633, the “area with substrate ENLYFQQ” value amounted to 0.0468, the “area with substrate ENLYFQR” value turned out to be 0.0679 and the “area with substrate ENLYFQS” value stood at 0.0945. The “area with substrate ENLYFQT” value turned out to be 0.0554, the “area with substrate ENLYFQV” value was determined as 0.059 and the “area with substrate ENLYFQW” value is 0.0606.
As for MGESLFKGPRDYNPISSSICHLTNESDGHTTSLYGIGFGPFIITNKHLFRRNNGTLVVQSLHGVFKVKDTTTLQQHLVDGRDMIIIRMPKDFPPFPQKLKFREPQREERICRVTTNFQTKSMSSMVSDTSCTFPSGDGIFWKHWIQTKDGQCGSPLVSTRDGFIVGIHSASNFTNTNNYFTSVPKNFMELLTNQEAQQWVSGWRLNADSVLWGGHKVFMVKPEEPFQPVKEATQL [L112R], the “area with substrate ENLYFQA” value was determined as 0.0828, the “area with substrate ENLYFQC” value worked out at 0.103, the “area with substrate ENLYFQG” value turned out to be 0.0771 and the “area with substrate ENLYFQI” value is 0.0733. The “area with substrate ENLYFQK” value stood at 0.0604, the “area with substrate ENLYFQL” value was 0.0501, the “area with substrate ENLYFQM” value was 0.0741 and the “area with substrate ENLYFQN” value turned out to be 0.072. The “area with substrate ENLYFQS” value stood at 0.0894, the “area with substrate ENLYFQT” value amounted to 0.0727, the “area with substrate ENLYFQV” value came out at 0.0558 and the “area with substrate ENLYFQW” value amounted to 0.0724. In addition, the “area with substrate ENLYFQY” value came out at 0.0659.
MGESLFKGPRDYNPISSSICHLTNESDGHTTSLYGIGFGPFIITNKHLFRRNNGTLVVQSLHGVFKVKDTTTLQQHLVDGRDMIIIRMPKDFPPFPQKLKFREPQREERICLVTTNFQTKSMSTMVSDTSCTFPSGDGIFWKHWIQTKDGQCGSPLVSTRDGFIVGIHSASNFTNTNNYFTSVPKNFMELLTNQEAQQWVSGWRLNADSVLWGGHKVFMVKPEEPFQPVKEATQL [S124T]: the “area with substrate ENLYFQA” value came to 0.0816, the “area with substrate ENLYFQC” value came out at 0.109, the “area with substrate ENLYFQF” value was determined as 0.088 and the “area with substrate ENLYFQG” value worked out at 0.115. Moreover, the “area with substrate ENLYFQI” value is 0.065, the “area with substrate ENLYFQK” value worked out at 0.0634, the “area with substrate ENLYFQL” value was determined as 0.0584 and the “area with substrate ENLYFQM” value came out at 0.0822. For the same variant, the “area with substrate ENLYFQN” value was 0.0747, the “area with substrate ENLYFQQ” value amounted to 0.0402, the “area with substrate ENLYFQR” value was found to be 0.0595 and the “area with substrate ENLYFQS” value amounted to 0.0978. For the same variant, the “area with substrate ENLYFQT” value came out at 0.0629, the “area with substrate ENLYFQV” value worked out at 0.0669 and the “area with substrate ENLYFQW” value was 0.0618.
